Our source for the binding values is paper PMC11369174, “Proteome-scale characterisation of motif-based interactome rewiring by disease mutations” (Molecular Systems Biology, 2024).

Chains of the proteins cited; added tags and fusions are not shown. Residues count along the entry.
UniProt P00519, residues 61-121: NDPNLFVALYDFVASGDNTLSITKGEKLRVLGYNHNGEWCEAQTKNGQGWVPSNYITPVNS
UniProt O14936, residues 12-276: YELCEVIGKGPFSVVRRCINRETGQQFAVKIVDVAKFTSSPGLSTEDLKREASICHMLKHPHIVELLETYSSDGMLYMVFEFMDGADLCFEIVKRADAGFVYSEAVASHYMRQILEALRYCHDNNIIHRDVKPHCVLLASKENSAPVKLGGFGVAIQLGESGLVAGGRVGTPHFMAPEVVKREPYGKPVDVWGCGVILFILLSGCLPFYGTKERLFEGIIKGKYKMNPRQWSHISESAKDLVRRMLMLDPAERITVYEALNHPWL
UniProt Q92793, residues 587-666: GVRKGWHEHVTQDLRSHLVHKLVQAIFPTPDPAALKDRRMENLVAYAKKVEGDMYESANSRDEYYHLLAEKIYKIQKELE
UniProt A9QM74: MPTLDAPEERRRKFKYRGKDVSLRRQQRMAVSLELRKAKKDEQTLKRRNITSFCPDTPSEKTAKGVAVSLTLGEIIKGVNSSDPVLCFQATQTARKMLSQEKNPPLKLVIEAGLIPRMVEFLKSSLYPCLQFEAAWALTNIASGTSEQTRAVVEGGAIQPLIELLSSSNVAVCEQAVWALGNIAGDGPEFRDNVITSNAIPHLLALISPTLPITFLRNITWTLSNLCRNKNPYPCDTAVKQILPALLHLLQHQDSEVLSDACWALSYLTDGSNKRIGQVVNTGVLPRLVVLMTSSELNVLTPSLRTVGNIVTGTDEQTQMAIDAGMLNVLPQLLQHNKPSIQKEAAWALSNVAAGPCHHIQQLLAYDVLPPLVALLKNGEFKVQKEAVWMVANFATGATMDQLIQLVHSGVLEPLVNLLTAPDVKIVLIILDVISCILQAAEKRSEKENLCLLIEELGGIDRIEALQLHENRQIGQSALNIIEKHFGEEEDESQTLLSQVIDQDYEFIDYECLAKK
UniProt P52294: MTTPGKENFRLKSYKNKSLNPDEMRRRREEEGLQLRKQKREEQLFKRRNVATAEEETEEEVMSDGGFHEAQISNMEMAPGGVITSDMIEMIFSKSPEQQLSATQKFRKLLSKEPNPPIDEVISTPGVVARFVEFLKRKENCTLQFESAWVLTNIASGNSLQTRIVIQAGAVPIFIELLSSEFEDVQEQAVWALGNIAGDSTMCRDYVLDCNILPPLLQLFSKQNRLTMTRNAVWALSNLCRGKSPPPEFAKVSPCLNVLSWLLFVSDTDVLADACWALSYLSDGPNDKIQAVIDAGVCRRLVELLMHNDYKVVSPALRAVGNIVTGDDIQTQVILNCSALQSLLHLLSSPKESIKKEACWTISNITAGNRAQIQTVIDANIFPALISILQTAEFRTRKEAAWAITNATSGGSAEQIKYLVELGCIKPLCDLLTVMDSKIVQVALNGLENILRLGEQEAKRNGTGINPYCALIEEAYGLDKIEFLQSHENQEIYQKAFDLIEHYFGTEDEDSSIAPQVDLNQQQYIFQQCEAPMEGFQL
UniProt O00505: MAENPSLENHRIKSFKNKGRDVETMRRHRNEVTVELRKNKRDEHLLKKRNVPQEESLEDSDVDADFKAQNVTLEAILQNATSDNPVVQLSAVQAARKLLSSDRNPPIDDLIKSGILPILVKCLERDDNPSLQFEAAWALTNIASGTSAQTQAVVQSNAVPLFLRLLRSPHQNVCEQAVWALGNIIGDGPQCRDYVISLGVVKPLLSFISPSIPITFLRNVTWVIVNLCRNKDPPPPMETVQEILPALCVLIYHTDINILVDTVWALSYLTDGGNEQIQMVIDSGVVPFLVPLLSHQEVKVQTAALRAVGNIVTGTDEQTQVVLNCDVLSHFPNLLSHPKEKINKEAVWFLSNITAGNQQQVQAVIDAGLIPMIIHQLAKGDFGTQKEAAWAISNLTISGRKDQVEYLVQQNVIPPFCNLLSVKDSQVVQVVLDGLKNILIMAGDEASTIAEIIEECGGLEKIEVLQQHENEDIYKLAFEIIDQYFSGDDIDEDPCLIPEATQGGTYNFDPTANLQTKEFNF
UniProt O00629: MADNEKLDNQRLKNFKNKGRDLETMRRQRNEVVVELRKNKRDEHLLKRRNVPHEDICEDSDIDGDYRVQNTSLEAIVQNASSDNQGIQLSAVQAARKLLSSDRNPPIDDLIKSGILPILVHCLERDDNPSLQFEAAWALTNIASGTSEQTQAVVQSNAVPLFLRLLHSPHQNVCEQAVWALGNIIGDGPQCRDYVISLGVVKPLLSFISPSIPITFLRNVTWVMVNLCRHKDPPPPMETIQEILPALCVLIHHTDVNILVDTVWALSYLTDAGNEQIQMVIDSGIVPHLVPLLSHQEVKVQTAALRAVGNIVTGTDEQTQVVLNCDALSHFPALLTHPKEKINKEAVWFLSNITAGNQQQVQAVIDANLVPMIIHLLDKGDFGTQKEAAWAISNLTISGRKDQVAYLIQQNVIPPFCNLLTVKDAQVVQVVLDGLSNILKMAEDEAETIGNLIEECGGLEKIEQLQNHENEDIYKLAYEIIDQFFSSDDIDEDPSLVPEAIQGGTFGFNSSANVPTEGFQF

The target of one experiment is T1, 3BP2 FITC-… peptide.
T1 sequence (peptide, FITC-labelled (printed as FITC- before the sequence)): HPPAYPPPPVPT
In words: fluorescence polarisation; saturation experiment: dilution series of the protein domain added to 10 nM FITC-labelled peptide; 50 mM sodium phosphate buffer pH 7.4, 0.05% Tween (protein in 50 mM sodium phosphate, 1 mM DTT; for CASK kinase domain also 100 mM NaCl); technical triplets; both purified. On the technique in general: Polarisation of emitted light reports the rotation of a fluorescent probe.

A further experiment deals with T2, PER2 FITC-… peptide.
T2 sequence (peptide, FITC-labelled (printed as FITC- before the sequence)): LQDPIWLLMADA
Described as above.

The next experiment deals with T3, TCF3 FITC-… peptide.
T3 sequence (peptide, FITC-labelled (printed as FITC- before the sequence)): DKELSDLLDFS
The description is as above.

The target in experiment [1] is T4, EGFP-CDC45 wild-type (human) (UniProt O75419).
T4 sequence: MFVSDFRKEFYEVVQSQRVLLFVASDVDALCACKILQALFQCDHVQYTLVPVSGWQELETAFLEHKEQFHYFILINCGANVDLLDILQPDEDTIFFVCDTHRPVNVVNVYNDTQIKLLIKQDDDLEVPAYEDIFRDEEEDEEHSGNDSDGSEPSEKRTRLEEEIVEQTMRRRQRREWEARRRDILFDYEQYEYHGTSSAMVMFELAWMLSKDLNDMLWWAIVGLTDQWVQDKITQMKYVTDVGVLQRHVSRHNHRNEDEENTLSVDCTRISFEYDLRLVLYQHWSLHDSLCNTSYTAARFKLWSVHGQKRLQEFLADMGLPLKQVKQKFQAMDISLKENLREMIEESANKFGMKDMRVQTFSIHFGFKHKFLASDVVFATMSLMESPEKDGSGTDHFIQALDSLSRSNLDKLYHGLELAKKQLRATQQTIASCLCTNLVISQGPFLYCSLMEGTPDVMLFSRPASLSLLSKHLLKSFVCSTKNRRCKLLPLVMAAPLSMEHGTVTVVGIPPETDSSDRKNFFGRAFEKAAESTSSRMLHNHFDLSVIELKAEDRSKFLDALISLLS
In words: co-IP; GFP-Trap of EGFP-tagged bait from lysate of cells co-transfected with T7-KPN (HEK293T in Fig. 5F); lysis 45 min on ice; blot for T7.

A further experiment addresses T5, EGFP-CDC45 R157C (human) (UniProt O75419).
T5 sequence: T4 sequence with R157C
The description is as above.

In experiment [2] the target is T6, EGFP-tagged wild-type ABRAXAS1 (BRCA1-A complex subunit Abraxas 1) (human) (UniProt Q6UWZ7).
T6 sequence: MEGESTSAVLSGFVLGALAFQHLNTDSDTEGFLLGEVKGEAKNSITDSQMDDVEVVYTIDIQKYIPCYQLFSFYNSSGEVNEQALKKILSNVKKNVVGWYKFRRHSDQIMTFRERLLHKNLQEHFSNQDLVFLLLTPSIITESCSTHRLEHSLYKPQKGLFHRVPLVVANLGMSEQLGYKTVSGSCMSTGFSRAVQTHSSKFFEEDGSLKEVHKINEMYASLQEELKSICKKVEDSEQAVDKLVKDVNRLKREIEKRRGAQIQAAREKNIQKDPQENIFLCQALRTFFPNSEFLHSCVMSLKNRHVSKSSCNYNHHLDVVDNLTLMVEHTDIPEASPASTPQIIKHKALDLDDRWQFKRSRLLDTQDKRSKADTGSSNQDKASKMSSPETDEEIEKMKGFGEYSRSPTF
Description: co-IP; GFP-Trap of EGFP-tagged wild-type ABRAXAS1 or CDC45 from lysates of co-transfected cells, blot for T7-tagged KPNA; lysis in 100 mM NaCl, 50 mM Tris pH 7.4, 0.05% NP-40, 45 min on ice; single repeat for the negative ones, three biological replicates for CDC45 with KPNA7.

Experiment [3] has as its target T7, EGFP-tagged wild-type CDC45 (Cell division control protein 45) (human) (UniProt O75419).
T7 sequence: T4 sequence
The experiment is described as above.

Residue numbers refer to the chain shown, from its start. Results are given in words; binding and its absence hold for the method and conditions named. For part of these data: Binding seen in cells or lysates may run through a third protein. Some entries that bind do so weakly or less than the wild type. For part of these data: Tags and fused reporters may be left off the sequences shown.

As for “ABL1 SH3 domain (from UniProt P00519 61-121) (domain or fragment)”, in the experiment with 3BP2 FITC-… peptide, the binding entry is given as “binds”.
As for “CASK kinase domain (from UniProt O14936 12-276) (domain or fragment)”, in the experiment with PER2 FITC-… peptide, the binding result is on record as “binds”.
“CREBBP KIX domain (from UniProt Q92793 587-666) (domain or fragment)”: in the experiment with TCF3 FITC-… peptide, the binding result was “binds”.
For the substance T7-KPNA7 (from UniProt A9QM74 1-516), the binding result in experiment [1] is “binds”; with EGFP-CDC45 R157C (human), “no binding”.
On to “T7-tagged KPNA1 (from UniProt P52294 1-538)”, for which the binding entry in experiment [2] and in experiment [3] was “no binding” each time.
In the case of “T7-tagged KPNA3 (from UniProt O00505 1-521)”, the binding entry in experiment [2] and in experiment [3] was “no binding” throughout.
For “T7-tagged KPNA4 (importin subunit alpha-3) (from UniProt O00629 1-521)”, the binding result in experiment [2] and in experiment [3] was “no binding” throughout.
Take “T7-tagged KPNA6 (from UniProt O60684 1-536)”: the binding entry in experiment [2] and in experiment [3] was “no binding” each time.
“T7-tagged KPNA7 (importin subunit alpha-8) (from UniProt A9QM74 1-516)”: the binding entry is “no binding” in experiment [2] and “binds” in experiment [3].
